From the supplement of paper PMC12217912
The list shows a part of the results. The full chains were built here from the parent and the listed change. Values near 0.05 are background.

B1: TEV protease; numbered along this chain (parent)
chain: MGESLFKGPRDYNPISSSICHLTNESDGHTTSLYGIGFGPFIITNKHLFRRNNGTLVVQSLHGVFKVKDTTTLQQHLVDGRDMIIIRMPKDFPPFPQKLKFREPQREERICLVTTNFQTKSMSSMVSDTSCTFPSGDGIFWKHWIQTKDGQCGSPLVSTRDGFIVGIHSASNFTNTNNYFTSVPKNFMELLTNQEAQQWVSGWRLNADSVLWGGHKVFMVKPEEPFQPVKEATQL

Variants of: B1
Test: raw area under fraction-flipped curve 0-4 h after induction (AUC4h, not background-subtracted), DNA-recorder readout of cleavage of the substrate (dimensionless); higher = more cleavage of the substrate by the protease variant
Details: temperature: 34 °C; time window: 0-4 h after rhamnose induction
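Note: Bxb1 expression induced with 0.2% (w/v) L-rhamnose at OD600 near 0.5, cultures sampled hourly, flipped fraction per protease–substrate barcode pair counted by paired-end Illumina sequencing.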

Variant	area with substrate ENDYFQS	area with substrate ENMYFQS	area with substrate ENTYFQS	area with substrate ENWYFQS	area with substrate ENEYFQS	area with substrate ENNYFQS	area with substrate ENPYFQS	area with substrate ENRYFQS	area with substrate ENVYFQS	area with substrate ENGYFQS
G153A	0.0572	0.0505	0.047	0.0979	–	–	–	–	–	–
P89K	0.0564	0.0971	0.0438	–	0.0483	0.0501	0.0572	0.0592	0.0555	–
S182D	0.0573	–	–	–	–	–	0.0674	0.0579	0.0693	0.0681
G150S	–	–	0.0579	–	0.0652	0.0555	–	–	–	–
F226P	–	0.0645	0.0837	–	–	0.0693	–	0.0582	–	0.0564
R50T	0.0644	0.0904	0.0615	0.0561	–	0.0658	0.0642	0.0568	–	–
F117I	0.0668	–	–	0.0614	0.0557	–	–	0.0631	–	0.0606
F117T	0.102	–	–	–	–	–	–	0.0397	–	0.0564
F95Q	0.0657	–	0.0502	0.0455	–	–	–	–	–	–
F95P	0.058	0.0417	–	0.0079	0.0577	–	0.0508	–	0.0672	0.046
L61I	0.0548	–	–	–	0.0676	0.0634	0.0391	0.0379	0.0947	0.0512
P228I	–	–	–	–	–	–	–	0.0522	0.0666	–
N116I	0.0674	–	–	–	–	–	–	0.0726	0.0831	–
A207F	0.0651	0.0654	0.0637	0.0056	–	–	–	0.0729	–	0.0499
L99A	0.0743	0.0791	–	–	0.0624	–	0.0497	0.0396	0.076	–
F180T	0.0399	–	–	–	0.0594	0.0571	0.0521	–	–	–
S171N	0.0601	–	–	0.0498	0.0696	0.0593	–	0.0305	–	0.0571
S171R	0.0479	–	0.0929	0.0624	0.0562	0.049	0.0763	0.0532	–	0.0582
K230R	0.0385	–	0.0623	–	–	0.0788	–	–	–	0.0388
I110A	0.0633	–	–	–	–	0.0318	0.0525	0.0647	–	–

Variant	area with substrate ENDYFQS	area with substrate ENMYFQS	area with substrate ENTYFQS	area with substrate ENWYFQS	area with substrate ENEYFQS	area with substrate ENNYFQS	area with substrate ENPYFQS	area with substrate ENRYFQS	area with substrate ENVYFQS	area with substrate ENGYFQS
Q146Y	0.0613	0.0682	0.0564	–	–	0.0471	0.0506	–	0.0822	0.0618
N193F	0.055	0.0815	0.0725	–	0.058	0.0528	–	–	0.0664	0.0618
L156P	0.0451	0.0413	0.0641	–	0.0532	0.0562	0.0637	0.0439	0.0519	0.0576
P155T	0.0524	–	–	–	0.0728	–	–	0.0608	–	0.0592
T181D	0.0658	–	–	–	0.0602	–	–	–	–	–
T181N	0.0623	–	–	–	–	–	–	0.076	–	–
T181Q	0.0627	–	0.0544	–	–	–	–	–	–	–
T181W	0.064	0.0706	–	–	–	–	0.0692	–	0.0587	–
G138I	0.0504	–	–	0.0481	0.0592	0.0387	–	0.0615	–	0.0418
G214H	0.0619	–	–	–	–	–	0.0732	0.0499	0.0688	0.0565
K90E	0.0375	–	0.0676	0.0689	0.0579	0.0621	–	–	–	–
D149A	0.0621	–	0.0559	–	0.0627	0.0577	–	0.0801	–	–
D149W	0.059	0.0587	–	0.0345	0.0503	0.0619	0.0557	0.0558	0.0584	0.0618
I145S	0.0888	0.0951	0.0613	0.0903	–	–	–	0.0647	0.0865	0.0657
S169V	0.0512	–	0.0664	–	0.0678	0.0611	–	–	–	–
S169L	0.0611	–	0.0042	–	0.051	–	–	–	–	–
A196P	–	0.0938	0.0448	–	–	–	–	–	0.0686	–
A196C	–	–	–	–	–	–	0.0529	–	–	–
A232I	0.0564	–	–	–	–	–	–	–	–	–

Same assay, conditions: temperature: 34 °C; time window: 0-4 h after rhamnose induction

Variant	area with substrate ENQYFQS	area with substrate ENSYFQS	area with substrate ENCYFQS	area with substrate ENHYFQS	area with substrate ENKYFQS	area with substrate ENFYFQS	area with substrate ENYYFQS	area with substrate ENIYFQS
S182D	0.0532	0.0261	–	–	–	–	–	–
G150S	0.0599	0.0672	0.0622	0.0648	0.0563	–	–	–
F226P	–	0.0821	0.0669	–	–	–	–	–
R50T	0.0553	0.0541	–	0.0669	–	0.0752	0.0595	–
F117I	–	–	–	0.0529	0.0618	–	0.0712	–
F117T	0.0528	–	–	0.0374	0.0436	–	–	–
F95Q	0.046	–	–	0.0622	0.0677	0.0597	–	–
F95P	0.0339	0.0382	–	–	0.0425	–	0.0554	–
L61I	–	0.0644	–	–	–	–	–	–
P228I	–	0.109	0.0741	–	–	–	–	–
N116I	0.07	0.061	–	–	–	–	–	0.0781
A207F	0.0388	0.065	0.0679	0.0503	–	0.0643	–	–
L99A	–	0.0637	–	–	–	–	0.0606	0.0894
F180T	0.0537	–	0.049	0.0423	0.0476	–	–	0.049
S171N	0.0594	0.0715	–	0.0703	0.0524	0.0653	0.0567	–
S171R	0.0788	0.0636	0.0657	–	–	–	0.0505	–
K230R	0.0565	0.0672	0.0494	0.0305	–	–	0.0375	–
I110A	0.0627	–	–	–	0.0384	–	–	–
Q146Y	0.0605	–	0.0794	0.049	0.0603	–	0.0757	–

Variant	area with substrate ENQYFQS	area with substrate ENSYFQS	area with substrate ENCYFQS	area with substrate ENHYFQS	area with substrate ENKYFQS	area with substrate ENFYFQS	area with substrate ENYYFQS	area with substrate ENIYFQS
N193F	–	0.0574	0.0609	0.0757	–	–	–	–
L156P	0.0499	0.0467	0.0502	0.0459	0.0485	0.0523	–	0.0661
P155T	0.0568	0.0643	0.0537	0.0532	–	–	–	–
T181D	–	0.0557	–	–	0.0524	–	–	–
T181N	0.0786	–	0.0622	–	–	–	–	0.0854
T181Q	–	0.0518	0.0753	–	0.0808	0.0634	–	–
T181W	0.083	0.0646	–	0.0596	–	0.0656	–	–
G138I	–	0.0578	–	0.0591	–	0.0561	–	–
G214H	–	0.0664	0.0789	–	–	0.0618	–	0.0653
K90E	0.0684	0.0587	–	–	0.0578	0.0715	0.0601	–
D149A	0.0715	–	0.0557	0.0343	0.0652	–	–	0.096
D149W	0.0608	0.0632	–	0.0285	–	0.0673	–	0.0603
I145S	0.0719	0.0737	0.0663	0.0619	–	0.0653	0.0559	–
S169V	0.0713	0.0379	0.055	0.048	–	0.0644	–	0.0623
S169L	–	0.0381	–	0.0644	0.0637	–	0.0703	–
A196P	0.0709	0.0516	0.0606	–	–	0.0427	–	–
A196C	0.0623	–	0.0618	–	–	–	–	–
A232I	0.0562	–	0.0681	–	0.0653	0.0647	–	0.106
